According to PubChem BioAssay (NCATS):
“And” between values parts separate entries of the source, which are not always exact repeats. Equal values may be shown once. The inconclusive results got no clear call from the source; some entries with a clear call stand among them for comparison. Potencies beside an inconclusive call are fits to weak or partial responses and may not hold up. The source made the active and inactive calls. Calls follow the shape of the dose curve; as a rule, active = well fitted curve in the direction sought with a large enough effect; inconclusive = small, poorly fitted or top-dose-only effect, or another doubt; inactive = no such curve, though single readings can be large; an effect the other way counts as inactive or inconclusive.

assay: qHTS of pediatric cancer cell lines to identify multiple opportunities for drug repurposing: Primary screen for DAOY cells (AID 1347090); conditions: DAOY medulloblastoma viability, CellTiter-Glo luminescence, 48 h; series mostly up to 46 µM; also: nearly all actives have a fitted effect of over 55% in size
Procedure, shortened: (§1)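 Cell viability, CellTiter-Glo luminescence; 500-1,000 cells/well, 8- or 11-point titration, 48 h compound exposure at 37 degrees C, 5% CO2. Controls: DMSO neutral, bortezomib 2.3 µM final as positive.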
Potency is read from the fitted curve at half-maximal effect; tags tell the direction and shape of the fitted curve.

SMILES	Potency
CCCCc1oc2ccccc2c1C(=O)c1cc(I)c(OCCN(CC)CC)c(I)c1	active: 5.9 µM and inconclusive: 33.5 µM [cytotoxic, single point]
CCC(=C(CC)c1ccc(O)cc1)c1ccc(O)cc1	inconclusive: 29.6 µM [cytotoxic, single point]
CCCCCN=C(N)NN=Cc1c[nH]c2ccc(OC)cc12	inconclusive: 9.35 µM [cytotoxic, full curve]
CCCCN(CCCC)CCC(O)c1cc2c(Cl)cc(Cl)cc2c2cc(C(F)(F)F)ccc12 (stereo not given)	inconclusive: 33.5 µM [cytotoxic, single point]
CCCC(=O)O[C@]1(C(=O)CCl)[C@@H](C)C[C@H]2[C@@H]3CCC4=CC(=O)C=C[C@]4(C)[C@@]3(F)C(=O)C[C@@]21C	inconclusive: 33.5 µM [cytotoxic, single point]
Cc1c(NC(=O)c2ccc(C(C)(C)C)cc2)cccc1-c1cn(C)c(=O)c(Nc2ccc(C(=O)N3CCOCC3)cc2)n1	inconclusive: 14.8 µM [cytotoxic, partial curve]
CCN1CCC(n2cc(CNc3cc(Cl)c4ncc(C#N)c(Nc5ccc(F)c(Cl)c5)c4c3)nn2)CC1	inconclusive: 18.7 µM [cytotoxic, partial curve, poor fit]

assay: qHTS of pediatric cancer cell lines to identify multiple opportunities for drug repurposing: Primary screen for SJ-GBM2 cells (AID 1347091); conditions: SJ-GBM2 viability, CellTiter-Glo luminescence, 48 h; series mostly up to 46 µM
Procedure, shortened: as §1

SMILES	Potency
COc1ccc(C=CC(=O)Nc2ccccc2C(=O)O)cc1OC	inactive
CCCCc1oc2ccccc2c1C(=O)c1cc(I)c(OCCN(CC)CC)c(I)c1	active: 8.33 µM and inconclusive: 26.6 µM [cytotoxic, single point]
COc1cc(Oc2ccnc3cc(OC)c(OC)cc23)ccc1NC(=O)NC(C)c1nccs1 (stereo not given)	inconclusive: 16.6 µM [cytotoxic, partial curve]
CCC(=C(CC)c1ccc(O)cc1)c1ccc(O)cc1	inconclusive: 18.7 µM [cytotoxic, partial curve]
CCCn1c(=O)c2[nH]c(C34CC5CC3C[C@@H](C5)C4)nc2n(CCC)c1=O	active: 16.6 µM
CCCCCN=C(N)NN=Cc1c[nH]c2ccc(OC)cc12	inconclusive: 4.18 µM [cytotoxic, full curve]
CCCCN(CCCC)CCC(O)c1cc2c(Cl)cc(Cl)cc2c2cc(C(F)(F)F)ccc12 (stereo not given)	inconclusive: 33.5 µM [cytotoxic, partial curve, poor fit] and inconclusive: 33.2 µM [cytotoxic, single point]
CCCC(=O)O[C@]1(C(=O)CCl)[C@@H](C)C[C@H]2[C@@H]3CCC4=CC(=O)C=C[C@]4(C)[C@@]3(F)C(=O)C[C@@]21C	inconclusive: 10.6 µM [cytotoxic, partial curve, poor fit]
COc1ccc(C2CC(c3ccccc3)=NN2c2ccc(S(N)(=O)=O)cc2)cc1 (stereo not given)	inconclusive: 29.6 µM [cytotoxic, single point]
C=C(c1ccc(C(=O)O)cc1)c1cc2c(cc1C)C(C)(C)CCC2(C)C	inconclusive: 26.4 µM [cytotoxic, single point]
O=C(CCCN1CCC(O)(c2ccc(Cl)cc2)CC1)c1ccc(F)cc1	inconclusive: 20.9 µM [cytotoxic, single point] and inconclusive: 29.9 µM [cytotoxic, single point]
CC(C(=O)O)c1ccc(C(=O)c2ccccc2)s1 (stereo not given)	inconclusive: 5.31 µM [cytotoxic, partial curve, poor fit]
CO[C@H]1C[C@@H]2CC[C@@H](C)[C@@](O)(O2)C(=O)C(=O)N2CCCC[C@@H]2C(=O)O[C@H]([C@H](C)C[C@@H]2CC[C@H](OCCO)[C@H](OC)C2)CC(=O)[C@H](C)C=C(C)[C@@H](O)[C@@H](OC)C(=O)[C@H](C)C[C@H](C)C=CC=CC=C1C	inconclusive: 0.296 µM [cytotoxic, full curve]
COC(=O)c1nc(Cl)c(Cl)nc1N	active: 5.31 µM
CN(C)CCCSc1ccccc1NC(=O)/C=C/c1ccccc1	inconclusive: 29.9 µM [cytotoxic, single point]
O=C(CCN1CCN2CCCC2C1)N1c2ccccc2Sc2ccc(Cl)cc21 (stereo not given)	inactive
Cc1c(NC(=O)c2ccc(C(C)(C)C)cc2)cccc1-c1cn(C)c(=O)c(Nc2ccc(C(=O)N3CCOCC3)cc2)n1	inconclusive: 13.2 µM [cytotoxic, partial curve]
CCN1CCC(n2cc(CNc3cc(Cl)c4ncc(C#N)c(Nc5ccc(F)c(Cl)c5)c4c3)nn2)CC1	active: 18.7 µM
